This is an account of results in PMC9911399, “Two distinct binding modes provide the RNA-binding protein RbFox with extraordinary sequence specificity”.

The chains are these.
B1: UAAGGGC (DNA:RNA)
RNA: GGGAGACCGGAAUUCAGAUUGUCCUAAGGGCUUAAAUCCCGUCGUAGCCACCA
DNA 1: CAATCTGAATTCCGGTCTCCC
DNA 2: TGGTGGCTACGACGGGATT
B2: CAACCCG (DNA:RNA)
RNA: B1 RNA with U25C, G28C, G29C, G30C, C31G
DNA 1: CAATCTGAATTCCGGTCTCCC
DNA 2: TGGTGGCTACGACGGGATT
B3: CUGGUAA (DNA:RNA)
RNA: B1 RNA with U25C, A26U, A27G, G29U, G30A, C31A
DNA 1: CAATCTGAATTCCGGTCTCCC
DNA 2: TGGTGGCTACGACGGGATT
B4: UCUUAGC (DNA:RNA)
RNA: B1 RNA with A26C, A27U, G28U, G29A
DNA 1: CAATCTGAATTCCGGTCTCCC
DNA 2: TGGTGGCTACGACGGGATT
B5: AGCGAUC (DNA:RNA)
RNA: B1 RNA with U25A, A26G, A27C, G29A, G30U
DNA 1: CAATCTGAATTCCGGTCTCCC
DNA 2: TGGTGGCTACGACGGGATT
B6: ACGGUAC (DNA:RNA)
RNA: B1 RNA with U25A, A26C, A27G, G29U, G30A
DNA 1: CAATCTGAATTCCGGTCTCCC
DNA 2: TGGTGGCTACGACGGGATT
B7: UAAAUGG (DNA:RNA)
RNA: B1 RNA with G28A, G29U, C31G
DNA 1: CAATCTGAATTCCGGTCTCCC
DNA 2: TGGTGGCTACGACGGGATT
B8: GCCUGAG (DNA:RNA)
RNA: B1 RNA with U25G, A26C, A27C, G28U, G30A, C31G
DNA 1: CAATCTGAATTCCGGTCTCCC
DNA 2: TGGTGGCTACGACGGGATT
B9: CUAGACC (DNA:RNA)
RNA: B1 RNA with U25C, A26U, G29A, G30C
DNA 1: CAATCTGAATTCCGGTCTCCC
DNA 2: TGGTGGCTACGACGGGATT
B10: GUUGGAA (DNA:RNA)
RNA: B1 RNA with U25G, A26U, A27U, G30A, C31A
DNA 1: CAATCTGAATTCCGGTCTCCC
DNA 2: TGGTGGCTACGACGGGATT
B11: UAUAGGC (DNA:RNA)
RNA: B1 RNA with A27U, G28A
DNA 1: CAATCTGAATTCCGGTCTCCC
DNA 2: TGGTGGCTACGACGGGATT
B12: CCGGCCA (DNA:RNA)
RNA: B1 RNA with U25C, A26C, A27G, G29C, G30C, C31A
DNA 1: CAATCTGAATTCCGGTCTCCC
DNA 2: TGGTGGCTACGACGGGATT
B13: AAGGAGU (DNA:RNA)
RNA: B1 RNA with U25A, A27G, G29A, C31U
DNA 1: CAATCTGAATTCCGGTCTCCC
DNA 2: TGGTGGCTACGACGGGATT
B14: AUUAUCC (DNA:RNA)
RNA: B1 RNA with U25A, A26U, A27U, G28A, G29U, G30C
DNA 1: CAATCTGAATTCCGGTCTCCC
DNA 2: TGGTGGCTACGACGGGATT
B15: CCCCUCU (DNA:RNA)
RNA: GGGAGACCGGAAUUCAGAUUGUCCCCCCUCUUUAAAUCCCGUCGUAGCCACCA
DNA 1: CAATCTGAATTCCGGTCTCCC
DNA 2: TGGTGGCTACGACGGGATT
B16: CAGUUUG (DNA:RNA)
RNA: B15 RNA with C26A, C27G, C28U, C30U, U31G
DNA 1: CAATCTGAATTCCGGTCTCCC
DNA 2: TGGTGGCTACGACGGGATT
B17: UCUAGCA (DNA:RNA)
RNA: B15 RNA with C25U, C27U, C28A, U29G, U31A
DNA 1: CAATCTGAATTCCGGTCTCCC
DNA 2: TGGTGGCTACGACGGGATT
B18: UGUAAAC (DNA:RNA)
RNA: B1 RNA with A26G, A27U, G28A, G29A, G30A
DNA 1: CAATCTGAATTCCGGTCTCCC
DNA 2: TGGTGGCTACGACGGGATT
B19: UUUCCGA (DNA:RNA)
RNA: B1 RNA with A26U, A27U, G28C, G29C, C31A
DNA 1: CAATCTGAATTCCGGTCTCCC
DNA 2: TGGTGGCTACGACGGGATT
B20: CUGAUUG (DNA:RNA)
RNA: B15 RNA with C26U, C27G, C28A, C30U, U31G
DNA 1: CAATCTGAATTCCGGTCTCCC
DNA 2: TGGTGGCTACGACGGGATT

Substitutions are numbered along the chain they refer to; changes in the protein carry UniProt numbers. This is one part of the list.

This test concerns the target T1, RBFOX1 RRM RbFoxmut (Fox-RRM*) (Homo sapiens, UniProt Q9NWB1 109-208, R118D;E147R;N151S;E152T).
T1 sequence: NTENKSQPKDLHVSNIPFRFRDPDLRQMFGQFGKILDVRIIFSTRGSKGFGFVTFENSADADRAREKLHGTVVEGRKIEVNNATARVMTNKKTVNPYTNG
In words: EMSA; HiTS-Eq, 1 nM pool, 10 min; buffer printed only for the single-RNA assays: 10 mM Tris pH 7.5, 150 mM NaCl, 3.4 mM EDTA, 0.001% NP-40, 30 C. The note with it: tags: His6 N-terminal (pET28a); label: 5' 32P. Summed up: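 A pool of RNA with 7 randomized nucleotides, 5′-radiolabelled and with DNA-annealed flanks, was equilibrated at 1 nM for 10 min in 50 µL with purified RbFox RRM, wild type or mutant, across increasing protein concentrations. Free RNA was separated by 8% native PAGE, excised, reverse-transcribed, barcoded by PCR and sequenced. Relative association constants were obtained from read-count changes of each RNA species versus the control reaction and normalised to the cognate motif.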
Regarding B1, the binding signal is 0.0666 KA relative to UGCAUGU.
As for B2, the figure is 0.0827 KA relative to UGCAUGU; as for B3, 0.121 KA relative to UGCAUGU; as for B4, 0.117 KA relative to UGCAUGU.
The value for B5 was 0.0635 KA relative to UGCAUGU.
The value for B6 was 0.121 KA relative to UGCAUGU; that for B7 was 0.0657 KA relative to UGCAUGU.
As to B8, the binding signal was 0.174 KA relative to UGCAUGU.
The value for B9 was 0.044 KA relative to UGCAUGU; that for B10 was 0.125 KA relative to UGCAUGU.
As for B11, the figure is 0.121 KA relative to UGCAUGU.
Consider B12, for which the binding signal is 0.0587 KA relative to UGCAUGU.
B13: the binding signal is 0.103 KA relative to UGCAUGU.
As to B14, the binding signal is 0.0569 KA relative to UGCAUGU.
As for B15, the figure is 0.0516 KA relative to UGCAUGU; as for B16, 0.248 KA relative to UGCAUGU; as for B17, 0.111 KA relative to UGCAUGU.
B18: the binding signal is 0.0616 KA relative to UGCAUGU.
The value for B19 was 0.0707 KA relative to UGCAUGU; that for B20 was 0.234 KA relative to UGCAUGU.
